Assay results published in paper PMC4336329 (PLoS ONE, 2015).
Out of some 310,000 compounds screened, about 14,000 (4.5%) showed an effect of 50% or more. Effects have a minus sign here. The list shows a part of the results. Where a SMILES comes first, the peptide text is derived from it. The star is where a group is joined. Boc = CC(C)(C)OC(=O)*; OBn = c1ccc(CO*)cc1

biological target: human ether-à-go-go-related gene (hERG) potassium channel (human, UniProt Q12809); assay: primary screen, population patch clamp on CHO cells stably expressing hERG
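Note: peak tail current of the secondary pulse compared with the same well before compound.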

Chain of human ether-à-go-go-related gene (hERG) potassium channel (Q12809 whole entry, looked up): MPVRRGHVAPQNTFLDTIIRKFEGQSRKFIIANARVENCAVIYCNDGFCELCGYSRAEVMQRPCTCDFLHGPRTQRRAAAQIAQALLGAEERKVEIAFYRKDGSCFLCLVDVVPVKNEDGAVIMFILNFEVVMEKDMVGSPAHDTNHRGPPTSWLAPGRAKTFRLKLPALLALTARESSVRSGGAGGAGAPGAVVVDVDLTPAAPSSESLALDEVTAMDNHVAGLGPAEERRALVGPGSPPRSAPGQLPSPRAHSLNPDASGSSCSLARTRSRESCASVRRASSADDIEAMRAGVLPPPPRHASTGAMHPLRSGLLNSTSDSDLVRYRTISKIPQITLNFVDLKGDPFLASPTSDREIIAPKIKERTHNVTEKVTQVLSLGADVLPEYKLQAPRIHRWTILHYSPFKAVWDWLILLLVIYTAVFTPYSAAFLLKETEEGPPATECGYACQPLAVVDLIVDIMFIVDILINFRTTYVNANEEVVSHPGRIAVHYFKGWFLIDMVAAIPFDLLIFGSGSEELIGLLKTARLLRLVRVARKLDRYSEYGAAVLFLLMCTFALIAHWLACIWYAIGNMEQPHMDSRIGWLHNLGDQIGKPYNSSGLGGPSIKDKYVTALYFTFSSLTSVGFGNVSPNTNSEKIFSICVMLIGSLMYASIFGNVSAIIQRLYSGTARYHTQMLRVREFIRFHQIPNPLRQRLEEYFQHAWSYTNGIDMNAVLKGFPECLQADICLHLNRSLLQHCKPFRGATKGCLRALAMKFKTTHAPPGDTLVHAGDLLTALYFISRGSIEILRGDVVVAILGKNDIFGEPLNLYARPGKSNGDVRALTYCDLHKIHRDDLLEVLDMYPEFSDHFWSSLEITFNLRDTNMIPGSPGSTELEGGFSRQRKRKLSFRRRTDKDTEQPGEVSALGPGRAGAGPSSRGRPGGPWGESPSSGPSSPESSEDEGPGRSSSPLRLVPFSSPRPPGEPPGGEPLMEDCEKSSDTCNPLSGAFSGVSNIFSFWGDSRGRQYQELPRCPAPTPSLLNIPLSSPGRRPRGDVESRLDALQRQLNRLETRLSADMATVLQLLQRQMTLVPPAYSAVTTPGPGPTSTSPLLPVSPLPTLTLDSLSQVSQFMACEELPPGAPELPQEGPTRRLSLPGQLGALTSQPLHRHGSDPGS

SMILES | hERG current change (%, negative = inhibition) at 10uM [%]
CCc1cccc2c1NC(=O)C21N2CCCC2C(C(=O)c2ccc3ccccc3c2)C12C(=O)Nc1ccccc12 (stereo not shown) | 0.132
COc1ccc(Nc2nc(Cl)nc(NCCO)n2)cc1 | -8.87
CC(C)C(NC(=O)OC(C)(C)C)C(=O)NC(CCC(=O)OCc1ccccc1)C(N)=O (stereo not drawn) (Boc-Val-Glu(OBn)-NH2; configuration not given here) | 20.2
Cc1ccccc1N/C(=N/S(=O)(=O)c1cc(F)ccc1F)c1ccccc1 | -20.5
CCOc1cc(S(=O)(=O)NCc2ccncc2)ccc1Cl | -10.8
O=C(CNC(=O)c1cccc(Cl)c1)Nc1ccc(F)c(F)c1F | 16.8
CC1(C)Cc2c(sc3nc(SCC(=O)O)nc(N)c23)CO1 | 18.9
CC1CCN(C(=O)CSc2nnc3c(n2)[nH]c2ccc(F)cc23)CC1 | -11.3
Cc1cc(NC(=O)c2ccc(N3C(=O)C4C5C=CC(C5)C4C3=O)cc2)no1 (stereo not shown) | 8.53
CCN(CC(=O)Nc1ccccc1C(F)(F)F)C(=O)c1cc(S(=O)(=O)N2CCCCCC2)ccc1OC | -6.49
Cc1cc(C)cc(C(=O)NC(=S)Nc2ccc3c(c2)OCCO3)c1 | -5.1
Cc1cccc(C2NC(c3cccc(C)c3)C([N+](=O)[O-])C(C)(C)C2[N+](=O)[O-])c1 (stereo not shown) | 0.615
N#Cc1c(-c2ccccc2)c(-c2ccccc2)n(Cc2ccco2)c1NC(=O)c1cccs1 | 12.6
O=C(COC(=O)CNC(=O)c1cccc(F)c1)NCCC1=CCCCC1 | 13.1
Cc1cccc(C)c1NC(=O)CN(C)C(=O)C1CC(=O)N(c2cccc3ccccc23)C1 (stereo not shown) | -2.15
Cc1cc(=O)n2nc(N3CCC(C(=O)NCc4ccccc4)CC3)sc2n1 | -3.68
O=C(c1ccc(C(=O)N2CCCc3ccccc32)s1)N1CCCc2ccccc21 | -17.1
Cc1cc(C)n2nc(SCC(=O)c3cc(C)n(CC4CCCO4)c3C)nc2n1 (stereo not shown) | 1.05
COc1ccc(CCN(C)C(=S)Nc2cccc(C)c2)cc1OC | 5.19
CC(C)n1cc(C(=O)N2CCCC(N3CCN(c4cccc(Cl)c4)CC3)C2)cn1 (stereo not shown) | -38
COc1ccc(/C=N/Nc2nc(NCc3ccco3)nc(Nc3ccc(OC)cc3)n2)cc1 | -5.24
Clc1cccc(-c2nnc(SCc3nc4ccccc4[nH]3)n2Cc2ccco2)c1 | -34.4

SMILES | hERG current change (%, negative = inhibition) at 10uM [%]
COc1ccc(-c2c3c(cc(C)[n+]2[O-])oc2ccc(OC)cc23)cc1 | 3.19
NC(=O)C1=C[C@H](C2CCCCC2)C[C@H](OCc2ccc(CO)cc2)O1 | 2.51
COc1cc(/C=C/C(=O)OCC(=O)Nc2ccc3c(c2)OCCO3)ccc1OCC#N | 3.1
CCN(CC)CCN(Cc1cc2cc(C)c(C)cc2[nH]c1=O)C(=S)NCc1ccco1 | -52.8
CC1CC(C)(C)NC(=S)N1CCCC(=O)Nc1ccc(Br)cc1 (stereo not shown) | -7.58
O=c1[nH]n(-c2ccc(Cl)cc2)c(=O)c(Cl)c1Cl | 11.4
CCN(C(=O)CN1CCCCC1)c1c(N)n(Cc2ccccc2)c(=O)[nH]c1=O | 4.35
CCn1c(SCC(=O)Nc2ccc(C(C)=O)cc2)nc2ccccc21 | -1.04
COc1cc(C)nc(N(Cc2ccccc2)S(=O)(=O)c2ccc(C)cc2)n1 | -4.77
CCc1ccccc1NC(=O)CN1CCN(C(=O)CN2C(=O)NC3(CCCC3)C2=O)CC1 | 7.54
O=C(Nc1nnc(C2CC2)s1)C1CCCCC1 | -0.526
COC(=O)C12CC3CC(C1)CC(n1cnc(Cl)n1)(C3)C2 | 4.79
COc1ccc(C(=O)c2ccc(OC)cc2OC)cc1 | 7.15
CCOC(=O)CN1NC2(CCC(C)CC2)NC1=S (stereo not shown) | 4.61
CN(C)c1cccc(C(=O)OCC(=O)Nc2nccs2)c1 | 11.2
COc1ccc(NC(=O)CCC(=O)Nc2nnc(C(F)(F)F)s2)c(OC)c1 | -0.667
N#CC(Nc1ccccc1)c1ccccc1OCc1ccccc1 (stereo not shown) | 0.346
Cc1cccc(N2CCN(Cc3oc(CO)cc(=O)c3O)CC2)c1C | 2.79
Cc1cccc(CN2CCN(c3ccc(Cl)cc3)CC2)c1 | 11
CC1CCCN(CCCNC(=O)c2ccc(CS(=O)(=O)c3c(Cl)cccc3Cl)o2)C1 (stereo not shown) | -44.8
Cc1c(OCC(=O)NC(Cc2ccc(Cl)cc2)C(=O)O)ccc2c1oc(=O)c1ccccc12 (stereo not shown) | -0.0909
